The IC50 comes from the fitted curve, where viability falls to half of the control; where the fit passes the top or lowest dose, that dose stands as a limit. AUC, from the same fit, is the share of area under the viability curve across the 256-fold dose range; the more sensitive the line, the further below 1. For some assays here: An inferred top dose was calculated from the reported fits.
Experiments:
Experiment in all cases: Viability of human cancer cell lines after 72 h of drug (GDSC screen)
QL-XI-92 = compound: C=CC(=O)Nc1cc(NC(=O)c2ccc(C)c(NC(=O)c3ccno3)c2)cc(C(F)(F)F)c1 [QL-XI-92]; settings: top dose 10.24 µM; top dose inferred
Description: (§1)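 Human cancer cell lines in 384-well plates, medium with 10% serum, drug for 72 h over a 256-fold dose range (nine 2-fold or five 4-fold steps up to the top dose). Adherent lines were fixed and stained with the nucleic acid dye Syto60, suspension lines read with resazurin; signal relative to control wells, capped at 0 and 100%. One two-parameter sigmoid per drug and line, fitted in a mixed model over all curves with the slope shared within a line.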

Vinorelbine = compound: CCC1=C[C@@H]2CN(C1)Cc1c([nH]c3ccccc13)[C@@](C(=O)OC)(c1cc3c(cc1OC)N(C)[C@H]1[C@@](O)(C(=O)OC)[C@H](OC(C)=O)[C@]4(CC)C=CCN5CC[C@]31[C@@H]54)C2 [Vinorelbine]; settings: top dose 0.064 µM; top dose inferred
Description: as §1

AG-014699 = compound: CNCc1ccc(-c2[nH]c3cc(F)cc4c3c2CCNC4=O)cc1 [AG-014699]; settings: top dose 5 µM; top dose inferred
Description: as §1

XL-184 = compound: COc1cc2nccc(Oc3ccc(NC(=O)C4(C(=O)Nc5ccc(F)cc5)CC4)cc3)c2cc1OC [XL-184]; settings: top dose 5.12 µM; top dose inferred
Description: as §1

WHI-P97 = compound: COc1cc2ncnc(Nc3cc(Br)c(O)c(Br)c3)c2cc1OC [WHI-P97]; settings: top dose 10.24 µM; top dose inferred
Description: as §1

Gefitinib = compound: COc1cc2ncnc(Nc3ccc(F)c(Cl)c3)c2cc1OCCCN1CCOCC1 [Gefitinib]; settings: top dose 0.5 µM
Description: as §1

Phenformin = compound: N=C(N)NC(=N)NCCc1ccccc1 [Phenformin]; settings: top dose 4000 µM; top dose inferred
Description: as §1

S-Trityl-L-cysteine = compound: N[C@@H](CSC(c1ccccc1)(c1ccccc1)c1ccccc1)C(=O)O [S-Trityl-L-cysteine]; settings: top dose 5.12 µM; top dose inferred
Description: as §1

EHT 1864 = compound: O=c1cc(CN2CCOCC2)occ1OCCCCCSc1ccnc2cc(C(F)(F)F)ccc12 [EHT 1864]; settings: top dose 10 µM; top dose inferred
Description: as §1

NU-7441 = compound: O=c1cc(N2CCOCC2)oc2c(-c3cccc4c3sc3ccccc34)cccc12 [NU-7441]; settings: top dose 2 µM; top dose inferred
Description: as §1

Cell Line | AUC (QL-XI-92) | IC50 (QL-XI-92) [µM] | AUC (Vinorelbine) | IC50 (Vinorelbine) [µM] | AUC (AG-014699) | IC50 (AG-014699) [µM] | AUC (XL-184) | IC50 (XL-184) [µM] | AUC (WHI-P97) | IC50 (WHI-P97) [µM] | AUC (Gefitinib) | IC50 (Gefitinib) [µM] | AUC (Phenformin) | IC50 (Phenformin) [µM] | AUC (S-Trityl-L-cysteine) | IC50 (S-Trityl-L-cysteine) [µM] | AUC (EHT 1864) | IC50 (EHT 1864) [µM] | AUC (NU-7441) | IC50 (NU-7441) [µM]
LB2518-MEL (melanoma, adherent) | 0.987 | > 10.2 | 0.847 | 0.051 | 0.987 | > 5 | 0.975 | > 5.12 | 0.981 | > 10.2 | 0.981 | > 0.5 | 0.414 | 143 | 0.809 | 2.85 | 0.987 | > 10 | 0.97 | > 2
LC4-1 (lymphoblastic leukaemia, suspension) | 0.81 | 6.12 | 0.611 | 0.00836 | 0.985 | > 5 | 0.896 | > 5.12 | 0.962 | > 10.2 | 0.983 | > 0.5 | 0.417 | 144 | 0.781 | 2.37 | 0.962 | > 10 | 0.985 | > 2
LOUCY (T-cell lymphoblastic leukaemia, suspension) | 0.876 | 7.05 | 0.622 | 0.00811 | 0.971 | > 5 | 0.878 | 3.58 | 0.973 | > 10.2 | 0.989 | > 0.5 | 0.574 | 382 | 0.592 | 0.545 | 0.959 | > 10 | 0.991 | > 2
LS-1034 (large intestine, adherent) | 0.982 | > 10.2 | 0.909 | > 0.064 | 0.972 | > 5 | 0.921 | > 5.12 | 0.986 | > 10.2 | 0.94 | > 0.5 | 0.81 | 2390 | 0.826 | 3.55 | 0.984 | > 10 | 0.983 | > 2
LU-165 (small cell lung carcinoma, suspension) | 0.965 | > 10.2 | 0.894 | > 0.064 | 0.988 | > 5 | 0.969 | > 5.12 | 0.982 | > 10.2 | 0.979 | > 0.5 | 0.903 | > 4000 | 0.949 | > 5.12 | 0.922 | > 10 | 0.988 | > 2
LXF-289 (lung adenocarcinoma, adherent) | 0.966 | > 10.2 | 0.568 | 0.00613 | 0.951 | > 5 | 0.949 | > 5.12 | 0.98 | > 10.2 | 0.984 | > 0.5 | 0.825 | 2350 | 0.663 | 0.901 | 0.969 | > 10 | 0.926 | > 2
MC116 (B-cell lymphoma, suspension) | 0.999 | > 10.2 | 0.61 | 0.00735 | 0.999 | > 5 | 0.984 | > 5.12 | 0.999 | > 10.2 | 0.999 | > 0.5 | 0.395 | 139 | 0.644 |  | 0.998 | > 10 | 0.999 | > 2
MC-CAR (haematopoietic neoplasm, suspension) | 0.789 | 4.01 | 0.661 | 0.0106 | 0.954 | > 5 | 0.895 | 5.09 | 0.942 | > 10.2 | 0.989 | > 0.5 | 0.856 | 2690 | 0.734 | 1.36 | 0.977 | > 10 | 0.923 | > 2
MDST8 (large intestine, adherent) | 0.983 | > 10.2 | 0.817 | 0.0353 | 0.969 | > 5 | 0.956 | > 5.12 | 0.985 | > 10.2 | 0.976 | > 0.5 | 0.927 | > 4000 | 0.869 | 4.64 | 0.833 | 6.35 | 0.956 | > 2
ME-1 (acute myeloid leukaemia, suspension) | 0.959 | > 10.2 | 0.962 | > 0.064 | 0.989 | > 5 | 0.989 | > 5.12 | 0.978 | > 10.2 | 0.969 | > 0.5 | 0.871 | > 4000 | 0.946 | > 5.12 | 0.958 | > 10 | 0.972 | > 2
MFH-ino (soft tissue, adherent) | 0.982 | > 10.2 | 0.563 | 0.00614 | 0.963 | > 5 | 0.975 | > 5.12 | 0.978 | > 10.2 | 0.981 | > 0.5 | 0.949 | > 4000 | 0.557 |  | 0.965 | > 10 | 0.927 | > 2
MFM-223 (breast, adherent) | 0.971 | > 10.2 | 0.984 | > 0.064 | 0.986 | > 5 | 0.818 | 2.84 | 0.981 | > 10.2 | 0.989 | > 0.5 | 0.849 | 2960 | 0.989 | > 5.12 | 0.943 | > 10 | 0.989 | > 2
MHH-PREB-1 (B-cell leukaemia, suspension) | 0.93 | > 10.2 | 0.505 | 0.00413 | 0.985 | > 5 | 0.882 | 4.45 | 0.887 | 9.38 | 0.986 | > 0.5 | 0.242 | 49.8 | 0.743 | 1.45 | 0.915 | > 10 | 0.942 | > 2
ML-2 (acute myeloid leukaemia, suspension) | 0.941 | > 10.2 | 0.489 | 0.00375 | 0.99 | > 5 | 0.932 | > 5.12 | 0.977 | > 10.2 | 0.986 | > 0.5 | 0.348 | 100 | 0.641 | 0.749 | 0.971 | > 10 | 0.987 | > 2
MN-60 (B-cell leukaemia, suspension) | 0.932 | > 10.2 | 0.918 | > 0.064 | 0.988 | > 5 | 0.973 | > 5.12 | 0.962 | > 10.2 | 0.986 | > 0.5 | 0.66 | 709 | 0.969 | > 5.12 | 0.976 | > 10 | 0.988 | > 2
MPP-89 (mesothelioma, adherent) | 0.977 | > 10.2 | 0.887 | > 0.064 | 0.977 | > 5 | 0.78 | 2.8 | 0.929 | > 10.2 | 0.967 | > 0.5 | 0.979 | > 4000 | 0.93 | > 5.12 | 0.973 | > 10 | 0.887 | > 2
MS-1 (small cell lung carcinoma, suspension) | 0.873 | 8.13 | 0.897 | > 0.064 | 0.981 | > 5 | 0.964 | > 5.12 | 0.98 | > 10.2 | 0.967 | > 0.5 | 0.569 | 377 | 0.754 | 1.56 | 0.951 | > 10 | 0.986 | > 2
MY-M12 (leukaemia, suspension) | 0.548 | 0.879 | 0.617 | 0.00876 | 0.874 | > 5 | 0.503 | 0.326 | 0.931 | > 10.2 | 0.976 | > 0.5 | 0.69 | 916 | 0.622 | 0.728 | 0.92 | > 10 | 0.927 | > 2
MZ1-PC (pancreas, adherent) | 0.911 | > 10.2 | 0.51 | 0.00428 | 0.905 | > 5 | 0.727 | 1.68 | 0.899 | > 10.2 | 0.978 | > 0.5 | 0.516 | 280 | 0.745 | 1.95 | 0.977 | > 10 | 0.973 | > 2
MZ2-MEL (melanoma, adherent) | 0.883 | > 10.2 | 0.767 | 0.0277 | 0.96 | > 5 | 0.964 | > 5.12 | 0.903 | > 10.2 | 0.979 | > 0.5 | 0.803 | 2390 | 0.834 | 4.17 | 0.964 | > 10 | 0.943 | > 2
Mo-T (hairy cell leukaemia, suspension) | 0.861 | 8.94 | 0.981 | > 0.064 | 0.941 | > 5 | 0.972 | > 5.12 | 0.956 | > 10.2 | 0.986 | > 0.5 | 0.602 | 478 | 0.987 | > 5.12 | 0.927 | > 10 | 0.849 | 1.56
NALM-6 (B-cell leukaemia, suspension) | 0.74 | 2.7 | 0.534 | 0.00486 | 0.985 | > 5 | 0.836 | 2.63 | 0.941 | > 10.2 | 0.986 | > 0.5 | 0.26 | 59.4 | 0.545 | 0.417 | 0.937 | > 10 | 0.98 | > 2
NB5 (neuroblastoma, adherent) | 0.982 | > 10.2 | 0.886 | > 0.064 | 0.846 | 3.71 | 0.978 | > 5.12 | 0.969 | > 10.2 | 0.93 | > 0.5 | 0.987 | > 4000 | 0.714 | 1.31 | 0.887 | > 10 | 0.943 | > 2
NB6 (neuroblastoma, adherent) | 0.975 | > 10.2 | 0.83 | 0.0532 | 0.984 | > 5 | 0.946 | > 5.12 | 0.967 | > 10.2 | 0.983 | > 0.5 | 0.972 | > 4000 | 0.789 | 2.86 | 0.983 | > 10 | 0.984 | > 2
NB14 (neuroblastoma, adherent) | 0.978 | > 10.2 | 0.682 | 0.0125 | 0.932 | > 5 | 0.883 | 4.96 | 0.927 | > 10.2 | 0.984 | > 0.5 | 0.977 | > 4000 | 0.977 | > 5.12 | 0.98 | > 10 | 0.932 | > 2
NB17 (neuroblastoma, adherent) | 0.834 | 8.09 | 0.809 | 0.0395 | 0.891 | > 5 | 0.93 | > 5.12 | 0.939 | > 10.2 | 0.984 | > 0.5 | 0.98 | > 4000 | 0.814 | 3.33 | 0.928 | > 10 | 0.98 | > 2

Reference: the supplement of paper PMC4967469
